# Over roughly 33,000 sequences, “E-score (-0.5 to 0.5)” has its median near -0.012; the highest 2% begin near 0.27. Some of the results follow.
# Target: T1, Vhr1 (UniProt P40522)
# T1 sequence: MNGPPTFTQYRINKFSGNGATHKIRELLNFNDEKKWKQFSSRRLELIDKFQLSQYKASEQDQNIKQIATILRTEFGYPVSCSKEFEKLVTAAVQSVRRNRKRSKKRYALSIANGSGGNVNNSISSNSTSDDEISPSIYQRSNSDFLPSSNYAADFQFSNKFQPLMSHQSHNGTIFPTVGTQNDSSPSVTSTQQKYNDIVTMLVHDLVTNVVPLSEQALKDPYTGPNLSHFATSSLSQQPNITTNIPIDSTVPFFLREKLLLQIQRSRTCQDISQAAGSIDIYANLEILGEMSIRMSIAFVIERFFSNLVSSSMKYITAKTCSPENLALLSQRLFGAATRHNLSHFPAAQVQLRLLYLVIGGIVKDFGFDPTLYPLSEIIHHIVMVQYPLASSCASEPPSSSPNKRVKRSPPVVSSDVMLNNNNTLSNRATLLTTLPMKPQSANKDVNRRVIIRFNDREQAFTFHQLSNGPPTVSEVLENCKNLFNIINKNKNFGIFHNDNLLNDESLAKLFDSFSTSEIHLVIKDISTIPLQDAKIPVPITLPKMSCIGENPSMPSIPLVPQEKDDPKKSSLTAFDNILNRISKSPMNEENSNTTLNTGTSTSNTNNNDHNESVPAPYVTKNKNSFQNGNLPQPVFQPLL
# Experiment: PBM E-score (8-mer binding enrichment) (E-score (-0.5 to 0.5)); higher = stronger / more preferred TF binding; most listed sequences are background and not binding sites
# Conditions: protein concentration: 200 nM; construct: GST-full length
# Procedure: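 Universal 'all 10-mer' protein binding microarrays (Agilent AMADID 015681) probed with GST-tagged S. cerevisiae TFs (full-length or DBD) made by in vitro transcription/translation (PURExpress), about 100-200 nM. Bound TF was detected with fluorescent anti-GST. Each ungapped 8-mer (which stands for itself and its reverse complement) is scored by the PBM enrichment score (E-score), a modified Wilcoxon-Mann-Whitney statistic from -0.5 to +0.5, computed with the Universal PBM Analysis Suite. Scale: above 0.35 generally sequence-specific binding.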
row,Sequence,PBM E-score
1,AATTGTAC,0.127
2,CAACATAC,0.06
3,GAGTGCGA,0.0178
4,CTTAAGCC,-0.234
5,ACTTCACA,-0.0867
6,CCCAACGC,-0.044
7,CTGGGAAC,0.157
8,ACTTTGGA,0.0908
9,GGTTTAAC,-0.0583
10,GCATCCAC,0.0832
11,ACTCTCTC,0.0707
12,ATGCGTTG,-0.0731
13,AGTATACA,0.0667
14,ACTGTTTG,0.0135
15,GACTTAAA,-0.28
16,GACACAGA,0.0346
17,CAGCCTAA,-0.181
18,AAGGGACT,-0.0238
19,AAGACTAT,0.139
20,AAGATTCA,0.138
21,CCAACTAC,0.111
22,CCGCTCAG,-0.0643

row,Sequence,PBM E-score
1,CCATCGAG,0.0908
2,TATTAATA,0.17
3,CTCCTCGA,-0.118
4,ACGGACAC,0.0877
5,CAACACGG,0.16
6,CTTCGCGC,0.107
7,CAGGTTCA,0.0551
8,CTGGACTA,-0.0239
9,CCAAGGAG,-0.147
10,CGTGTGAA,-0.00085
11,GCGATCTA,0.00878
12,ATCGAGAC,0.0749
13,AGCCATAT,0.0836
14,ATCGTGCA,0.0684
15,AATGGTTA,0.118
16,CCACGCCG,-0.0762
17,ACGTACTC,0.138
18,CCCTATAA,-0.115
19,TCCATAAA,-0.0842
20,CGATCCTC,-0.0732
21,CTCTGGTC,-0.0103
22,AAGGCAGA,-0.122

row,Sequence,PBM E-score
1,GTCTCCAC,0.117
2,GATCCAGA,0.0935
3,CAGCGATA,-0.0998
4,AGATAATC,-0.196
5,CTGGTTCA,-0.0177
6,AAGCCCTT,-0.268
7,CATACCCA,0.271
8,AGGGGACG,-0.163
9,GCCGTGGA,-0.198
10,CGACACTA,0.201
11,AGAACAAC,-0.114
12,CATTTATA,0.0707
13,ACTCTTAC,0.163
14,AAGTGTAG,0.0716
15,CGGTCCGA,0.0103
16,TAGAAAGA,-0.134
17,AATAGGAG,-0.179
18,GACGCAGC,-0.175
19,AATTGAAG,-0.235
20,AGAAGCGC,0.16
21,ACTAGGAG,0.101
22,AATAAGTA,-0.0992

row,Sequence,PBM E-score
1,AGATTTGA,0.0476
2,GCGCCCTA,-0.126
3,ATCTTTCA,-0.0137
4,AGTCTTGC,0.0289
5,GGGGTTCA,-0.0551
6,AGTCCAAC,-0.148
7,GTGTACGA,0.179
8,ACAAGCAC,-0.0697
9,AAAAAGTG,-0.112
10,CCGGTCGC,-0.0251
11,GCCCAGAC,-0.15
12,CCTGAAAA,-0.276
13,ATAGTGAT,0.145
14,CACAAACA,-0.0304
15,CTACATTA,-0.0643
16,AGAACACC,-0.119
17,CCATTAGA,-0.0764
18,ATCTAATG,-0.157
19,ACACAAGA,0.0208
20,GAGATTCC,0.155

# From the supplement of paper PMC3334620
